Data taken from the supplement of paper PMC4967469.

Tests used:
Assay in all cases: Viability of human cancer cell lines after 72 h of drug (GDSC screen)
ABT-263 = compound: CC1(C)CCC(c2ccc(Cl)cc2)=C(CN2CCN(c3ccc(C(=O)NS(=O)(=O)c4ccc(N[C@H](CCN5CCOCC5)CSc5ccccc5)c(S(=O)(=O)C(F)(F)F)c4)cc3)CC2)C1 [ABT-263]; conditions: top dose 2 µM; top dose inferred
Description: (§1)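 Human cancer cell lines in 384-well plates, medium with 10% serum, drug for 72 h over a 256-fold dose range (nine 2-fold or five 4-fold steps up to the top dose). Adherent lines were fixed and stained with the nucleic acid dye Syto60, suspension lines read with resazurin; signal relative to control wells, capped at 0 and 100%. One two-parameter sigmoid per drug and line, fitted in a mixed model over all curves with the slope shared within a line.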

piperlongumine = compound: COc1cc(/C=C/C(=O)N2CCC=CC2=O)cc(OC)c1OC [piperlongumine]; conditions: top dose 10 µM
Description: as §1

GW 441756 = compound: Cn1cc(/C=C2\C(=O)Nc3cccnc32)c2ccccc21 [GW 441756]; conditions: top dose 2 µM; top dose inferred
Description: as §1

PIK-93 = compound: CC(=O)Nc1nc(C)c(-c2ccc(Cl)c(S(=O)(=O)NCCO)c2)s1 [PIK-93]; conditions: top dose 20 µM
Description: as §1

NCI-H508 (large intestine, semi-adherent)
AUC (ABT-263): 0.726 | IC50 (ABT-263): 0.874 µM | AUC (piperlongumine): 0.763 | IC50 (piperlongumine): 6.37 µM | AUC (GW 441756): 0.976 | IC50 (GW 441756): > 2 µM

U031 (kidney, adherent)
AUC (PIK-93): 0.892 | IC50 (PIK-93): > 20 µM | AUC (ABT-263): 0.926 | IC50 (ABT-263): > 2 µM | AUC (piperlongumine): 0.707 | IC50 (piperlongumine): 2.46 µM

MHH-CALL-2 (B-cell leukaemia, suspension)
AUC (ABT-263): 0.982 | IC50 (ABT-263): > 2 µM | AUC (piperlongumine): 0.865 | IC50 (piperlongumine): 5.26 µM | AUC (GW 441756): 0.997 | IC50 (GW 441756): > 2 µM

ASH-3 (thyroid, adherent)
AUC (PIK-93): 0.981 | IC50 (PIK-93): > 20 µM | AUC (ABT-263): 0.986 | IC50 (ABT-263): > 2 µM | AUC (piperlongumine): 0.793 | IC50 (piperlongumine): 4.57 µM

OVCAR-3 (ovary, adherent)
AUC (PIK-93): 0.984 | IC50 (PIK-93): > 20 µM | AUC (ABT-263): 0.926 | IC50 (ABT-263): > 2 µM | AUC (piperlongumine): 0.756 | IC50 (piperlongumine): 3.73 µM

CL-40 (large intestine, adherent)
AUC (ABT-263): 0.924 | IC50 (ABT-263): > 2 µM | AUC (piperlongumine): 0.874 | IC50 (piperlongumine): > 10 µM | AUC (GW 441756): 0.975 | IC50 (GW 441756): > 2 µM

NCI-H1341 (small cell lung carcinoma, suspension)
AUC (ABT-263): 0.58 | IC50 (ABT-263): 0.2 µM | AUC (piperlongumine): 0.802 | IC50 (piperlongumine): 4.08 µM | AUC (GW 441756): 0.79 | IC50 (GW 441756): 0.748 µM

RCH-ACV (B-cell leukaemia, suspension)
AUC (ABT-263): 0.677 | IC50 (ABT-263): 0.352 µM | AUC (piperlongumine): 0.836 | IC50 (piperlongumine): 5.06 µM | AUC (GW 441756): 0.985 | IC50 (GW 441756): > 2 µM

KNS-62 (lung squamous cell carcinoma, adherent)
AUC (ABT-263): 0.933 | IC50 (ABT-263): > 2 µM | AUC (piperlongumine): 0.712 | IC50 (piperlongumine): 3.32 µM | AUC (GW 441756): 0.936 | IC50 (GW 441756): > 2 µM

IGR-37 (melanoma, adherent)
AUC (PIK-93): 0.795 | IC50 (PIK-93): 8.35 µM | AUC (ABT-263): 0.983 | IC50 (ABT-263): > 2 µM | AUC (piperlongumine): 0.708 | IC50 (piperlongumine): 2.27 µM

NCI-H2066 (small cell lung carcinoma, adherent)
AUC (ABT-263): 0.889 | IC50 (ABT-263): > 2 µM | AUC (piperlongumine): 0.953 | IC50 (piperlongumine): > 10 µM

JHOS-4 (ovary, adherent)
AUC (ABT-263): 0.803 | IC50 (ABT-263): 1.57 µM | AUC (GW 441756): 0.77 | IC50 (GW 441756): 1.12 µM

BHY (head and neck, adherent)
AUC (PIK-93): 0.814 | IC50 (PIK-93): 10.9 µM | AUC (ABT-263): 0.955 | IC50 (ABT-263): > 2 µM | AUC (piperlongumine): 0.725 | IC50 (piperlongumine): 2.73 µM

SUP-B8 (B-cell leukaemia, suspension)
AUC (ABT-263): 0.916 | IC50 (ABT-263): > 2 µM | AUC (piperlongumine): 0.837 | IC50 (piperlongumine): 6.63 µM | AUC (GW 441756): 0.987 | IC50 (GW 441756): > 2 µM

PC-3 (prostate, adherent)
AUC (PIK-93): 0.702 | IC50 (PIK-93): 5.29 µM | AUC (ABT-263): 0.98 | IC50 (ABT-263): > 2 µM | AUC (piperlongumine): 0.724 | IC50 (piperlongumine): 3.16 µM

OCI-LY7 (B-cell lymphoma, suspension)
AUC (ABT-263): 0.612 | IC50 (ABT-263): 0.232 µM | AUC (piperlongumine): 0.872 | IC50 (piperlongumine): 5.22 µM | AUC (GW 441756): 0.911 | IC50 (GW 441756): 1.37 µM

MM1S (myeloma, suspension)
AUC (ABT-263): 0.703 | IC50 (ABT-263): 0.452 µM | AUC (GW 441756): 0.982 | IC50 (GW 441756): > 2 µM

HuH-7 (liver, adherent)
AUC (ABT-263): 0.865 | IC50 (ABT-263): 1.75 µM | AUC (piperlongumine): 0.738 | IC50 (piperlongumine): 2.98 µM | AUC (GW 441756): 0.974 | IC50 (GW 441756): > 2 µM

SW900 (lung squamous cell carcinoma, adherent)
AUC (PIK-93): 0.933 | IC50 (PIK-93): > 20 µM | AUC (ABT-263): 0.945 | IC50 (ABT-263): > 2 µM | AUC (piperlongumine): 0.786 | IC50 (piperlongumine): 5.08 µM

SK-HEP-1 (liver, adherent)
AUC (PIK-93): 0.894 | IC50 (PIK-93): > 20 µM | AUC (ABT-263): 0.989 | IC50 (ABT-263): > 2 µM | AUC (piperlongumine): 0.716 | IC50 (piperlongumine): 2.43 µM

HLE (liver, adherent)
AUC (PIK-93): 0.796 | IC50 (PIK-93): 8.75 µM | AUC (ABT-263): 0.963 | IC50 (ABT-263): > 2 µM | AUC (piperlongumine): 0.683 | IC50 (piperlongumine): 1.97 µM

A673 (rhabdomyosarcoma, adherent)
AUC (PIK-93): 0.921 | IC50 (PIK-93): > 20 µM | AUC (ABT-263): 0.988 | IC50 (ABT-263): > 2 µM | AUC (piperlongumine): 0.677 | IC50 (piperlongumine): 1.83 µM

ChaGo-K-1 (non-small cell lung carcinoma, adherent)
AUC (PIK-93): 0.877 | IC50 (PIK-93): > 20 µM | AUC (ABT-263): 0.962 | IC50 (ABT-263): > 2 µM | AUC (piperlongumine): 0.701 | IC50 (piperlongumine): 2.55 µM

A172 (glioma, adherent)
AUC (PIK-93): 0.876 | IC50 (PIK-93): 18.6 µM | AUC (ABT-263): 0.987 | IC50 (ABT-263): > 2 µM | AUC (piperlongumine): 0.767 | IC50 (piperlongumine): 3.59 µM

OAW-28 (ovary, adherent)
AUC (PIK-93): 0.764 | IC50 (PIK-93): 9.18 µM | AUC (ABT-263): 0.729 | IC50 (ABT-263): 0.68 µM | AUC (piperlongumine): 0.822 | IC50 (piperlongumine): 8 µM

HCC1806 (breast, adherent)
AUC (PIK-93): 0.889 | IC50 (PIK-93): 19.7 µM | AUC (ABT-263): 0.913 | IC50 (ABT-263): > 2 µM | AUC (piperlongumine): 0.77 | IC50 (piperlongumine): 3.49 µM

NCI-H522 (lung adenocarcinoma, adherent)
AUC (PIK-93): 0.848 | IC50 (PIK-93): 19.2 µM | AUC (ABT-263): 0.929 | IC50 (ABT-263): > 2 µM | AUC (piperlongumine): 0.77 | IC50 (piperlongumine): 4.52 µM

RERF-GC-1B (stomach, adherent)
AUC (PIK-93): 0.877 | IC50 (PIK-93): > 20 µM | AUC (ABT-263): 0.893 | IC50 (ABT-263): > 2 µM | AUC (piperlongumine): 0.81 | IC50 (piperlongumine): 6.03 µM

SK-CO-1 (large intestine, adherent)
AUC (PIK-93): 0.76 | IC50 (PIK-93): 6.66 µM | AUC (ABT-263): 0.678 | IC50 (ABT-263): 0.38 µM | AUC (piperlongumine): 0.774 | IC50 (piperlongumine): 3.69 µM

OSC-19 (head and neck, adherent)
AUC (PIK-93): 0.879 | IC50 (PIK-93): > 20 µM | AUC (ABT-263): 0.953 | IC50 (ABT-263): > 2 µM | AUC (piperlongumine): 0.76 | IC50 (piperlongumine): 3.65 µM

BPH-1 (prostate, adherent)
AUC (PIK-93): 0.57 | IC50 (PIK-93): 1.98 µM | AUC (ABT-263): 0.929 | IC50 (ABT-263): > 2 µM | AUC (piperlongumine): 0.739 | IC50 (piperlongumine): 3.28 µM

786-0 (kidney, adherent)
AUC (PIK-93): 0.896 | IC50 (PIK-93): > 20 µM | AUC (ABT-263): 0.985 | IC50 (ABT-263): > 2 µM | AUC (piperlongumine): 0.682 | IC50 (piperlongumine): 1.93 µM

NUGC-3 (stomach, adherent)
AUC (PIK-93): 0.914 | IC50 (PIK-93): > 20 µM | AUC (ABT-263): 0.911 | IC50 (ABT-263): > 2 µM | AUC (piperlongumine): 0.729 | IC50 (piperlongumine): 3.07 µM

NCI-H2030 (lung adenocarcinoma, adherent)
AUC (PIK-93): 0.787 | IC50 (PIK-93): 10.1 µM | AUC (ABT-263): 0.958 | IC50 (ABT-263): > 2 µM | AUC (piperlongumine): 0.77 | IC50 (piperlongumine): 4.35 µM

H2591 (mesothelioma, adherent)
AUC (PIK-93): 0.842 | IC50 (PIK-93): > 20 µM | AUC (ABT-263): 0.953 | IC50 (ABT-263): > 2 µM | AUC (piperlongumine): 0.806 | IC50 (piperlongumine): 7.01 µM

SW1990 (pancreas, adherent)
AUC (PIK-93): 0.97 | IC50 (PIK-93): > 20 µM | AUC (piperlongumine): 0.747 | IC50 (piperlongumine): 3.67 µM | AUC (GW 441756): 0.959 | IC50 (GW 441756): > 2 µM

PANC-10-05 (pancreas, adherent)
AUC (PIK-93): 0.903 | IC50 (PIK-93): > 20 µM | AUC (ABT-263): 0.953 | IC50 (ABT-263): > 2 µM | AUC (piperlongumine): 0.778 | IC50 (piperlongumine): 5.28 µM

IC50 is the fitted dose that halves viability relative to control wells, and lower means more sensitive; a limit (>, <) means that the fit lies beyond the doses tested. AUC sums up the same curve from the lowest dose to the 256-fold higher top dose; values near 1 show little effect. For part of these data: A top dose marked as inferred is not printed in the source and was worked back from the curve model.
